Test results reported in the supplement of paper PMC4967469.
A lower IC50 marks a more sensitive line; a limit (>, <) means that the fit lies beyond the doses tested. For AUC the same curve is integrated over the 256-fold range of doses and scaled to a fraction; it is 1 without any effect and falls as sensitivity rises. For part of these data: A top dose marked as inferred is not printed in the source and was worked back from the curve model. For part of these data: Where an entry number is given, a second screen of the drug exists; the two often differ.

Columns and labels:
Assay in all cases: Viability of human cancer cell lines after 72 h of drug (GDSC screen)
[1] = compound: C/C(=C\c1csc(C)n1)[C@@H]1C[C@@H]2O[C@]2(C)CCC[C@H](C)[C@H](O)[C@@H](C)C(=O)C(C)(C)[C@@H](O)CC(=O)O1 [Epothilone B]; conditions: top dose 0.032 µM; top dose inferred
Method: (§1)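 Human cancer cell lines in 384-well plates, medium with 10% serum, drug for 72 h over a 256-fold dose range (nine 2-fold or five 4-fold steps up to the top dose). Adherent lines were fixed and stained with the nucleic acid dye Syto60, suspension lines read with resazurin; signal relative to control wells, capped at 0 and 100%. One two-parameter sigmoid per drug and line, fitted in a mixed model over all curves with the slope shared within a line.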

[2] = compound: CC(C)CC(=O)Nc1n[nH]c2c1CN(C(=O)C1CCN(C)CC1)C2(C)C [PHA-793887]; conditions: top dose 10.24 µM
Method: as §1

[3] = compound: CCCS(=O)(=O)Nc1ccc(F)c(C(=O)c2c[nH]c3ncc(Cl)cc23)c1F [PLX4720]; conditions: top dose 10 µM
Method: as §1

[4] = compound: C[C@@H](N)c1ccc(C(=O)Nc2ccnc3[nH]ccc23)cc1 [Y-39983]; conditions: top dose 20 µM; top dose inferred
Method: as §1

[5] = compound: NC(=O)Nc1sc(-c2ccc(F)cc2)cc1C(N)=O [TPCA-1]; conditions: top dose 20 µM
Method: as §1

[6] = screen: GDSC drug entry 1371, top dose inferred

| Cell Line | AUC [1] | IC50 [1] | AUC [2] | IC50 [2] | AUC ([3]; screen: GDSC drug entry 1036) | IC50 ([3]; screen: GDSC drug entry 1036) | AUC [3, 6] | IC50 [3, 6] | AUC [4] | IC50 [4] | AUC [5] | IC50 [5] |
| --- | --- | --- | --- | --- | --- | --- | --- | --- | --- | --- | --- | --- |
| PCI-6A (head and neck, adherent) | 0.238 | 0.000356 µM | 0.751 | 3.3 µM | 0.915 | > 10 µM | 0.986 | > 10 µM | 0.945 | > 20 µM | 0.734 | 5.73 µM |
| PCI-15A (head and neck, adherent) | 0.609 | 0.00401 µM | 0.832 | 6.61 µM | 0.982 | > 10 µM | 0.986 | > 10 µM | 0.984 | > 20 µM | 0.976 | > 20 µM |
| PCI-30 (head and neck, adherent) | 0.985 | > 0.032 µM | 0.962 | > 10.2 µM | 0.968 | > 10 µM | 0.983 | > 10 µM | 0.968 | > 20 µM | 0.942 | > 20 µM |
| PCI-38 (head and neck, adherent) | 0.581 | 0.00334 µM | 0.827 | 6.31 µM | – | – | 0.984 | > 10 µM | 0.948 | > 20 µM | 0.837 | 13.5 µM |
| PE/CA-PJ15 (head and neck, adherent) | 0.953 | > 0.032 µM | 0.951 | > 10.2 µM | 0.977 | > 10 µM | 0.937 | > 10 µM | 0.978 | > 20 µM | 0.955 | > 20 µM |
| PFSK-1 (medulloblastoma, adherent) | 0.783 | 0.0143 µM | 0.635 | 1.55 µM | 0.922 | > 10 µM | 0.983 | > 10 µM | 0.892 | > 20 µM | 0.858 | 18 µM |
| PL4 (pancreas, adherent) | 0.794 | 0.0153 µM | 0.961 | > 10.2 µM | 0.985 | > 10 µM | 0.983 | > 10 µM | 0.987 | > 20 µM | 0.946 | > 20 µM |
| PL18 (pancreas, adherent) | 0.794 | 0.0146 µM | 0.906 | > 10.2 µM | – | – | 0.909 | > 10 µM | 0.979 | > 20 µM | 0.94 | > 20 µM |
| RCM-1 (large intestine, adherent) | 0.792 | 0.0181 µM | 0.977 | > 10.2 µM | 0.959 | > 10 µM | 0.983 | > 10 µM | 0.969 | > 20 µM | 0.93 | > 20 µM |
| RD (rhabdomyosarcoma, adherent) | 0.64 | 0.00507 µM | 0.844 | 8.36 µM | – | – | 0.938 | > 10 µM | 0.955 | > 20 µM | 0.843 | 16.2 µM |
| RERF-GC-1B (stomach, adherent) | 0.736 | 0.0103 µM | 0.901 | > 10.2 µM | 0.985 | > 10 µM | 0.983 | > 10 µM | 0.844 | 16.9 µM | 0.784 | 9.53 µM |
| RERF-LC-KJ (lung adenocarcinoma, adherent) | 0.601 | 0.00383 µM | 0.709 | 2.54 µM | 0.978 | > 10 µM | 0.986 | > 10 µM | 0.969 | > 20 µM | 0.962 | > 20 µM |
| RERF-LC-MS (lung adenocarcinoma, adherent) | 0.795 | 0.0153 µM | 0.987 | > 10.2 µM | 0.987 | > 10 µM | 0.968 | > 10 µM | 0.972 | > 20 µM | 0.849 | 15.7 µM |
| RERF-LC-Sq1 (lung squamous cell carcinoma, adherent) | 0.932 | > 0.032 µM | 0.875 | > 10.2 µM | 0.928 | > 10 µM | 0.858 | > 10 µM | 0.961 | > 20 µM | 0.9 | > 20 µM |
| RH-41 (rhabdomyosarcoma, adherent) | 0.861 | 0.0202 µM | 0.897 | 9.05 µM | 0.927 | > 10 µM | 0.991 | > 10 µM | 0.992 | > 20 µM | 0.897 | 17.6 µM |
| RKN (ovary, adherent) | 0.855 | 0.0279 µM | 0.857 | 9.14 µM | 0.918 | > 10 µM | 0.931 | > 10 µM | 0.929 | > 20 µM | 0.868 | > 20 µM |
| RMG-I (ovary, adherent) | 0.86 | > 0.032 µM | 0.775 | 4.76 µM | – | – | 0.92 | > 10 µM | 0.983 | > 20 µM | 0.77 | 8.88 µM |
| RO82-W-1 (thyroid, adherent) | 0.915 | > 0.032 µM | 0.983 | > 10.2 µM | 0.965 | > 10 µM | 0.909 | > 10 µM | 0.966 | > 20 µM | 0.973 | > 20 µM |

| Cell Line | AUC [1] | IC50 [1] | AUC [2] | IC50 [2] | AUC ([3]; screen: GDSC drug entry 1036) | IC50 ([3]; screen: GDSC drug entry 1036) | AUC [3, 6] | IC50 [3, 6] | AUC [4] | IC50 [4] | AUC [5] | IC50 [5] |
| --- | --- | --- | --- | --- | --- | --- | --- | --- | --- | --- | --- | --- |
| RPMI-2650 (head and neck, adherent) | 0.524 | 0.00234 µM | 0.821 | 6.54 µM | 0.942 | > 10 µM | 0.974 | > 10 µM | 0.885 | > 20 µM | 0.841 | 15.6 µM |
| RPMI-7951 (melanoma, adherent) | 0.416 | 0.00118 µM | 0.775 | 3.93 µM | 0.88 | 9.84 µM | 0.965 | > 10 µM | 0.889 | > 20 µM | 0.922 | > 20 µM |
| RT4 (bladder, adherent) | 0.909 | > 0.032 µM | 0.919 | > 10.2 µM | 0.965 | > 10 µM | 0.986 | > 10 µM | 0.963 | > 20 µM | 0.465 | 0.995 µM |
| RT-112 (bladder, adherent) | 0.365 | 0.000824 µM | 0.804 | 5.58 µM | – | – | 0.982 | > 10 µM | 0.848 | 16.6 µM | 0.757 | 7.35 µM |
| RVH-421 (melanoma, adherent) | 0.773 | 0.0173 µM | 0.978 | > 10.2 µM | 0.543 | 0.853 µM | 0.73 | 3.66 µM | 0.922 | > 20 µM | 0.837 | > 20 µM |
| SAS (head and neck, adherent) | 0.934 | > 0.032 µM | 0.678 | 2.14 µM | 0.968 | > 10 µM | 0.965 | > 10 µM | 0.948 | > 20 µM | 0.783 | 9.45 µM |
| SAT (head and neck, adherent) | 0.807 | 0.0289 µM | 0.936 | > 10.2 µM | 0.912 | > 10 µM | 0.911 | > 10 µM | 0.962 | > 20 µM | 0.916 | > 20 µM |
| SBC-3 (small cell lung carcinoma, adherent) | 0.454 | 0.00151 µM | 0.274 | 0.157 µM | 0.955 | > 10 µM | 0.988 | > 10 µM | 0.881 | 17.7 µM | 0.847 | 12.7 µM |
| SBC-5 (small cell lung carcinoma, adherent) | 0.385 | 0.00103 µM | 0.993 | > 10.2 µM | 0.993 | > 10 µM | 0.993 | > 10 µM | 0.991 | > 20 µM | 0.977 | > 20 µM |
| SCC-4 (head and neck, adherent) | 0.413 | 0.0011 µM | 0.962 | > 10.2 µM | – | – | 0.969 | > 10 µM | 0.977 | > 20 µM | 0.926 | > 20 µM |
| SCC-9 (head and neck, adherent) | 0.909 | > 0.032 µM | 0.631 | 1.63 µM | 0.952 | > 10 µM | 0.942 | > 10 µM | 0.971 | > 20 µM | 0.731 | 6.94 µM |
| SCC-25 (head and neck, adherent) | 0.459 | 0.00152 µM | 0.828 | 7.47 µM | 0.984 | > 10 µM | 0.929 | > 10 µM | 0.973 | > 20 µM | 0.744 | 6.93 µM |
| SF295 (glioma, adherent) | 0.448 | 0.00143 µM | 0.905 | > 10.2 µM | 0.922 | > 10 µM | 0.856 | 9.09 µM | 0.923 | > 20 µM | 0.95 | > 20 µM |
| SISO (cervix, adherent) | 0.611 | 0.00398 µM | 0.922 | > 10.2 µM | 0.975 | > 10 µM | 0.97 | > 10 µM | 0.967 | > 20 µM | 0.89 | > 20 µM |
| SJRH30 (rhabdomyosarcoma, adherent) | 0.782 | 0.0139 µM | 0.761 | 3.75 µM | 0.984 | > 10 µM | 0.967 | > 10 µM | 0.956 | > 20 µM | 0.958 | > 20 µM |
| SK-CO-1 (large intestine, adherent) | 0.724 | 0.00827 µM | 0.989 | > 10.2 µM | 0.981 | > 10 µM | 0.979 | > 10 µM | 0.844 | 13.1 µM | 0.813 | 10 µM |
| SK-HEP-1 (liver, adherent) | 0.426 | 0.00128 µM | 0.989 | > 10.2 µM | 0.883 | 9.44 µM | 0.899 | > 10 µM | 0.977 | > 20 µM | 0.794 | 8.51 µM |
| SK-LU-1 (lung adenocarcinoma, adherent) | 0.546 | 0.00276 µM | 0.892 | > 10.2 µM | 0.887 | > 10 µM | 0.915 | > 10 µM | 0.958 | > 20 µM | 0.836 | 18.7 µM |
